Experimental data taken from article PMC6120582.

Target: eIF2B(βγδε) heterotetramer with δL179V (human), P49770

GEF activity of eIF2B(βγδε) containing δL179V, with ISRIB: 0.024 min⁻¹ | GEF activity of eIF2B(βγδε) containing δL179V, without ISRIB: 0.027 min⁻¹
B1: eIF2B(βγδε) heterotetramer with δL179V (complex)
chain 1: MPGSAAKGSELSERIESFVETLKRGGGPRSSEEMARETLGLLRQIITDHRWSNAGELMELIRREGRRMTAAQPSETTVGNMVRRVLKIIREEYGRLHGRSDESDQQESLHKLLTSGGLNEDFSFHYAQLQSNIIEAINELLVELEGTMENIAAQALEHIHSNEVIMTIGFSRTVEAFLKEAARKRKFHVIVAECAPFCQGHEMAVNLSKAGIETTVMTDAAIFAVMSRVNKVIIGTKTILANGALRAVTGTHTLALAAKHHSTPLIVCAPMFKLSPQFPNEEDSFHKFVAPEEVLPFTEGDILEKVSVHCPVFDYVPPELITLFISNIGGNAPSYIYRLMSELYHPDDHVL
chain 2: MEFQAVVMAVGGGSRMTDLTSSIPKPLLPVGNKPLIWYPLNLLERVGFEEVIVVTTRDVQKALCAEFKMKMKPDIVCIPDDADMGTADSLRYIYPKLKTDVLVLSCDLITDVALHEVVDLFRAYDASLAMLMRKGQDSIEPVPGQKGKKKAVEQRDFIGVDSTGKRLLFMANEADLDEELVIKGSILQKHPRIRFHTGLVDAHLYCLKKYIVDFLMENGSITSIRSELIPYLVRKQFSSASSQQGQEEKEEDLKKKELKSLDIYSFIKEANTLNLAPYDACWNACRGDRWEDLSRSQVRCYVHIMKEGLCSRVSTLGLYMEANRQVPKLLSALCPEEPPVHSSAQIVSKHLVGVDSLIGPETQIGEKSSIKRSVIGSSCLIKDRVTITNCLLMNSVTVEEGSNIQGSVICNNAVIEKGADIKDCLIGSGQRIEAKAKRVNEVIVGNDQLMEI
chain 3: not shown
chain 4: MAAPVVAPPGVVVSRANKRSGAGPGGSGGGGARGAEEEPPPPLQAVLVADSFDRRFFPISKDQPRVLLPLANVALIDYTLEFLTATGVQETFVFCCWKAAQIKEHLLKSKWCRPTSLNVVRIITSELYRSLGDVLRDVDAKALVRSDFLLVYGDVISNINITRALEEHRLRRKLEKNVSVMTMIFKESSPSHPTRCHEDNVVVAVDSTTNRVLHFQKTQGLRRFAFPLSLFQGSSDGVEVRYDLLDCHISICSPQVAQLFTDNFDYQTRDDFVR[about 20 residues not printed]VSNLHMYSAVCADVIRRWVYPLTPEANFTDSTTQSCTHSRHNIYRGPEVSLGHGSILEENVLLGSGTVIGSNCFITNSVIGPGCHIGDNVVLDQTYLWQGVRVAAGAQIHQSLLCDNAEVKERVTLKPRSVLTSQVVVGPNITLPEGSVISLHPPDAEEDEDDGEFSDDSGADQEKDKVKMKGYNPAEVGAAGKGYLWKAAGMNMEEEEELQQNLWGLKINMEEESESESEQSMDSEEPDSRGGSPQMDDIKVFQNEVLGTLQRGKEENISCDNLVLEINSLKYAYNISLKEVMQVLSHVVLEFPLQQMDSPLDSSRYCALLLPLLKAWSPVFRNYIKRAADHLEALAAIEDFFLEHEALGISMAKVLMAFYQLEILAEETILSWFSQRDTTDKGQQLRKNQQLQRFIQWLKEAEEESSEDD
